# Laboratory results reported in the supplement of paper PMC8728848.
# The other results are listed elsewhere or left out.
# B1: CLECb-Precomplexed (Mus musculus), P43025 (protein)
# chain: MAKNGLVLCILVVSLLLDQTDGYPSRMKARKHSKRRVKAKDDDLKSQVEKLWREVNALKEMQALQTVCLRGTKVHKKCYLASEGLKHYHEANEDCISKGGTLVVPRNSDEINALRDYGKRSLPGVNDFWLGINDMVTEGKFLDVHGFAVSFLNWDRAQPSGGKRENCVLFSQSAQGKWSDEACRSSKRYICEFIIPTRTRPLEQKLISEEDLAANDILDYKDDDDKV
# Columns and labels:
# Test in all cases: glycan array binding signal (z-score within array); higher = stronger binding
# Details in all cases: glycan notation: IUPAC condensed, linker removed
# Fuc(a1-2)Gal = molecular target: Fuc(a1-2)Gal
# Outline: (§1)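 Negative Z-scores can be read as non-binding. The Z-score is calculated within each array and then averaged across arrays of one protein sequence at different concentrations or buffers and across linkers. Arrays, 3228 in all, were curated from the Consortium for Functional Glycomics database and kept only where the protein sequence was available.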
# Fuc(a1-2)Gal(b1-3)GalNAc = molecular target: Fuc(a1-2)Gal(b1-3)GalNAc
# Outline: as §1
# [1] = molecular target: Fuc(a1-2)Gal(b1-3)GalNAc(a1-3)[Fuc(a1-2)]Gal(b1-4)Glc
# Outline: as §1
# [2] = molecular target: Fuc(a1-2)Gal(b1-3)GalNAc(a1-3)[Fuc(a1-2)]Gal(b1-4)GlcNAc
# Outline: as §1
# [3] = molecular target: Fuc(a1-2)Gal(b1-3)GalNAc(b1-3)Gal
# Outline: as §1
# [4] = molecular target: Fuc(a1-2)Gal(b1-3)GalNAc(b1-3)Gal(a1-4)Gal(b1-4)Glc
# Outline: as §1
# [5] = molecular target: Fuc(a1-2)Gal(b1-3)GalNAc(b1-4)[Neu5Ac(a2-3)]Gal(b1-4)Glc
# Outline: as §1
# Fuc(a1-2)Gal(b1-3)GlcNAc = molecular target: Fuc(a1-2)Gal(b1-3)GlcNAc
# Outline: as §1
# [6] = molecular target: Fuc(a1-2)Gal(b1-3)GlcNAc(b1-2)Man(a1-3)[Fuc(a1-2)Gal(b1-3)GlcNAc(b1-2)Man(a1-6)]Man(b1-4)GlcNAc(b1-4)GlcNAc
# Outline: as §1
# [7] = molecular target: Fuc(a1-2)Gal(b1-3)GlcNAc(b1-2)Man(a1-3)[Fuc(a1-2)Gal(b1-3)GlcNAc(b1-2)Man(a1-6)]Man(b1-4)GlcNAc(b1-4)[Fuc(a1-6)]GlcNAc
# Outline: as §1
# [8] = molecular target: Fuc(a1-2)Gal(b1-3)GlcNAc(b1-3)Gal(b1-4)Glc
# Outline: as §1
# [9] = molecular target: Fuc(a1-2)Gal(b1-3)GlcNAc(b1-3)GalNAc
# Outline: as §1
# [10] = molecular target: Fuc(a1-2)Gal(b1-3)GlcNAc(b1-3)[Fuc(a1-2)Gal(b1-3)GlcNAc(b1-6)]GalNAc
# Outline: as §1
# [11] = molecular target: Fuc(a1-2)Gal(b1-3)GlcNAc(b1-3)[Gal(b1-4)GlcNAc(b1-6)]Gal(b1-4)Glc
# Outline: as §1
# [12] = molecular target: Fuc(a1-2)Gal(b1-3)GlcNAc(b1-3)[Neu5Ac(a2-6)Gal(b1-4)GlcNAc(b1-6)]Gal(b1-4)Glc
# Outline: as §1
# [13] = molecular target: Fuc(a1-2)Gal(b1-3)GlcNAc6S
# Outline: as §1
# [14] = molecular target: Fuc(a1-2)Gal(b1-3)[Fuc(a1-4)]GlcNAc
# Outline: as §1
# [15] = molecular target: Fuc(a1-2)Gal(b1-3)[Fuc(a1-4)]GlcNAc(b1-2)Man(a1-3)[Fuc(a1-2)Gal(b1-3)[Fuc(a1-4)]GlcNAc(b1-2)Man(a1-3)]Man(b1-4)GlcNAc(b1-4)GlcNAc
# Outline: as §1
# [16] = molecular target: Fuc(a1-2)Gal(b1-3)[Fuc(a1-4)]GlcNAc(b1-2)Man(a1-3)[Fuc(a1-2)Gal(b1-3)[Fuc(a1-4)]GlcNAc(b1-2)Man(a1-6)]Man(b1-4)GlcNAc(b1-4)[Fuc(a1-6)]GlcNAc(b1-4)[Fuc(a1-6)]GlcNAc
# Outline: as §1
# [17] = molecular target: Fuc(a1-2)Gal(b1-3)[Fuc(a1-4)]GlcNAc(b1-3)[Fuc(a1-3)[Gal(b1-4)]GlcNAc(b1-6)]Gal(b1-4)Glc
# Outline: as §1
# [18] = molecular target: Fuc(a1-2)Gal(b1-3)[Fuc(a1-4)]GlcNAc(b1-3)[Gal(b1-4)GlcNAc(b1-6)]Gal(b1-4)Glc
# Outline: as §1
# [19] = molecular target: Fuc(a1-2)Gal(b1-4)Fuc(a1-3)]GlcNAc(b1-2)Man(a1-3)[Fuc(a1-2)Gal(b1-4)[Fuc(a1-3)]GlcNAc(b1-2)Man(a1-6)]Man(b1-4)GlcNAc(b1-4)GlcNAc
# Outline: as §1
# Fuc(a1-2)Gal(b1-4)Glc = molecular target: Fuc(a1-2)Gal(b1-4)Glc
# Outline: as §1
# Fuc(a1-2)Gal(b1-4)Glc6S = molecular target: Fuc(a1-2)Gal(b1-4)Glc6S
# Outline: as §1
# Fuc(a1-2)Gal(b1-4)GlcNAc = molecular target: Fuc(a1-2)Gal(b1-4)GlcNAc
# Outline: as §1
# [20] = molecular target: Fuc(a1-2)Gal(b1-4)GlcNAc(b1-2)Man
# Outline: as §1
# [21] = molecular target: Fuc(a1-2)Gal(b1-4)GlcNAc(b1-2)Man(a1-3)[Fuc(a1-2)Gal(b1-4)GlcNAc(b1-2)Man(a1-6)]Man(b1-4)GlcNAc(b1-4)GlcNAc
# Outline: as §1
# [22] = molecular target: Fuc(a1-2)Gal(b1-4)GlcNAc(b1-2)Man(a1-3)[Fuc(a1-2)Gal(b1-4)GlcNAc(b1-2)Man(a1-6)]Man(b1-4)GlcNAc(b1-4)[Fuc(a1-6)]GlcNAc
# Outline: as §1
# [23] = molecular target: Fuc(a1-2)Gal(b1-4)GlcNAc(b1-2)[Fuc(a1-2)Gal(b1-4)GlcNAc(b1-4)]Man(a1-3)[Fuc(a1-2)Gal(b1-4)GlcNAc(b1-2)Man(a1-6)]Man(b1-4)GlcNAc(b1-4)GlcNAc
# Outline: as §1
# [24] = molecular target: Fuc(a1-2)Gal(b1-4)GlcNAc(b1-3)Gal(b1-4)GlcNAc
# Outline: as §1
# [25] = molecular target: Fuc(a1-2)Gal(b1-4)GlcNAc(b1-3)Gal(b1-4)GlcNAc(b1-2)Man(a1-3)[Fuc(a1-2)Gal(b1-4)GlcNAc(b1-3)Gal(b1-4)GlcNAc(b1-2)Man(a1-6)]Man(b1-4)GlcNAc(b1-4)GlcNAc
# Outline: as §1
# [26] = molecular target: Fuc(a1-2)Gal(b1-4)GlcNAc(b1-3)Gal(b1-4)GlcNAc(b1-3)Gal(b1-4)GlcNAc
# Outline: as §1
# [27] = molecular target: Fuc(a1-2)Gal(b1-4)GlcNAc(b1-3)GalNAc
# Outline: as §1
# [28] = molecular target: Fuc(a1-2)Gal(b1-4)GlcNAc(b1-3)[Fuc(a1-2)Gal(b1-4)GlcNAc(b1-6)]GalNAc
# Outline: as §1
# [29] = molecular target: Fuc(a1-2)Gal(b1-4)GlcNAc(b1-3)[Fuc(a1-3)[Gal(b1-4)]GlcNAc(b1-6)]Gal(b1-4)Glc
# Outline: as §1
# [30] = molecular target: Fuc(a1-2)Gal(b1-4)GlcNAc(b1-6)GalNAc
# Outline: as §1
# [31] = molecular target: Fuc(a1-2)Gal(b1-4)GlcNAc6S
# Outline: as §1
binder,measurement,setting,value
B1,glycan array binding signal (z-score),Fuc(a1-2)Gal,-0.428
same,glycan array binding signal (z-score),Fuc(a1-2)Gal(b1-3)GalNAc,-0.304
same,glycan array binding signal (z-score),[1],-0.41
same,glycan array binding signal (z-score),[2],-0.409
same,glycan array binding signal (z-score),[3],0.227
same,glycan array binding signal (z-score),[4],-0.577
same,glycan array binding signal (z-score),[5],-0.221
same,glycan array binding signal (z-score),Fuc(a1-2)Gal(b1-3)GlcNAc,-0.163
same,glycan array binding signal (z-score),[6],1.58
same,glycan array binding signal (z-score),[7],-0.203
same,glycan array binding signal (z-score),[8],-0.062
same,glycan array binding signal (z-score),[9],-0.589
same,glycan array binding signal (z-score),[10],0.337
same,glycan array binding signal (z-score),[11],-0.234
same,glycan array binding signal (z-score),[12],-0.178
same,glycan array binding signal (z-score),[13],-0.588
same,glycan array binding signal (z-score),[14],0.299
same,glycan array binding signal (z-score),[15],-0.07
same,glycan array binding signal (z-score),[16],0.228
same,glycan array binding signal (z-score),[17],0.45
same,glycan array binding signal (z-score),[18],-0.164
same,glycan array binding signal (z-score),[19],0.346
same,glycan array binding signal (z-score),Fuc(a1-2)Gal(b1-4)Glc,-0.51
same,glycan array binding signal (z-score),Fuc(a1-2)Gal(b1-4)Glc6S,-0.092
same,glycan array binding signal (z-score),Fuc(a1-2)Gal(b1-4)GlcNAc,-0.225
same,glycan array binding signal (z-score),[20],0.223
same,glycan array binding signal (z-score),[21],2.16
same,glycan array binding signal (z-score),[22],0.75
same,glycan array binding signal (z-score),[23],0.752
same,glycan array binding signal (z-score),[24],-0.117
same,glycan array binding signal (z-score),[25],-0.181
same,glycan array binding signal (z-score),[26],0.219
same,glycan array binding signal (z-score),[27],-0.377
same,glycan array binding signal (z-score),[28],-0.15
same,glycan array binding signal (z-score),[29],0.299
same,glycan array binding signal (z-score),[30],1.06
same,glycan array binding signal (z-score),[31],-0.562
